Results taken from the supplement of paper PMC11417369.
The list shows a part of the results.

Tested on: PF3D7_0420300 AP2 domain 1 (GST-tagged)
Assay: gcPBM binding intensity (ln(normalized median fluorescence intensity)); higher = stronger DNA binding
Procedure, shortened: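 Binding of GST-tagged P. falciparum DNA-binding domains, expressed in E. coli and used at about 25 μg on average, was carried out for 1 h in 1× PBS containing 1% milk, 0.2 mg/ml BSA, 0.5% salmon testes DNA and 0.03% Triton X-100. The target was an Agilent 4 × 180k array of primer-extended double-stranded 36-bp intergenic genomic probes plus negative controls, read with Alexa488 anti-GST antibody at 488 nm. Binding intensity is the highest Masliner-normalised natural-log median intensity across replicate spots of either probe orientation.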

Row | Sequence | gcPBM binding intensity (ln)
1 | ATATAAAAAAATAATAAATAAATAAAAAGATTTCTT [XGTACX_negctrl_site110] | 9.22
2 | TATATTAATAAAGGTACTACACGGAAATGGAAATAT [XGTACX_site7760] | 9.82
3 | CTTGTATAGAAACACACACACACTTTCTTTTTTTAA [CACACA_site1964] | 9.87
4 | ATTCTTTATTATTCGCCACACACATATATATATATA [CACACA_site9009] | 9.91
5 | TATTGGAAAATTAGAAGTACTTTCATATATTAGACT [XGTACX_site4503] | 9.06
6 | TTTTTATTATTCCATAGTACAGAAAAAATGATATAT [XGTACX_site3431] | 8.99
7 | TAGATTTTTATGCGTGCACACATTTAAAAAAAAAAC [CACACA_site3421] | 9.27
8 | ATACCTACATACATACGTACATATATATATATAATG [XGTACX_site234] | 9.5
9 | AAATATAATAACATAACACACACATGTATTTATAGG [CACACA_site8009] | 9.8
10 | TTTTAATAAATTCAAAACATAAAAAGGAAAAAAAAA [XGTACX_negctrl_site471] | 9.13
11 | TATAATGAGAAGATATAATATATAGGGGGTAATTCT [GTGCAC_negctrl_site228] | 9.89
12 | ATATATATATATATATGTACTTATTTGTATAAATAC [XGTACX_site8031] | 9.02
13 | TTTTTTTCATAAGAAGCACACAAAAAATGATAGAGA [CACACA_site8401] | 9.22
14 | CTATTTCAATTTAGTGCACACATTTTAATTTATAAG [CACACA_site2040] | 9.36
15 | ACATACACATATACATGTACATATATATATATATAT [XGTACX_site5082] | 9.43
16 | ATTAAAACAAAATGTACACACATATCATTTAATGAC [CACACA_site6543] | 9.55
17 | TATGAAAAGATATATACACACATAATAAAGGTATAT [CACACA_site7713] | 9.74
18 | CATTATTATTAACATACACACGTGTTAAATACACCC [CACACA_site6118] | 9.5
19 | TTTTAATCTTAATTATGTACATATAAAATGTGTATA [XGTACX_site7382] | 9.05
20 | ATATATGTATTTAATACACACAAAACTTTCATTCCA [CACACA_site3531] | 9.47
21 | ATATTCATTAACCACACACACAAAAAAAATAAAATT [CACACA_site3801] | 10
22 | TTTTTAGAAAGACATGCATGTAATAAAAATAAATAA [TGCATGCA_site685] | 9.04

Row | Sequence | gcPBM binding intensity (ln)
23 | ATACATATATGCTTCTGTACACATAATTTATAAAAA [XGTACX_site7000] | 9.22
24 | CATATGTCTTGAGATCGTACGTTATTTTTTTTATTT [XGTACX_site1381] | 9.52
25 | AAGAATATTAATATAAATAAGTAAATAAATAAATAA [CACACA_negctrl_site417] | 9.33
26 | AAAAATTATATATATATATATATATATATATGTATA [GTGCAC_negctrl_site488] | 8.89
27 | TGGTAAATTTACCGTTGTACATTCATTTATAACATT [XGTACX_site8910] | 9.32
28 | TATAAATTTAAAATGACACACACTAAAATTATTTAA [CACACA_site1239] | 9.47
29 | GTATTATTATTATGCACACAAAAATATTTATACATA [CACACA_site3656] | 9.46
30 | TATATATATATATATATATATATATATATATGTATA [TGCATGCA_negctrl_site17] | 8.66
31 | TATAAAAAGCATAACACACACATGTCAATATATATA [CACACA_site1111] | 9.86
32 | ATAGAACAGAAAAGGCGTACAATAATATGTAAACAA [XGTACX_site2828] | 9.49
33 | AAAAAAAAAATATGTACACACATATATAATACATAA [CACACA_site1639] | 9.57
34 | AGAAAAGAGAAAAGTAGTACAAAGGATCATTTAAAA [XGTACX_site5294] | 9.35
35 | TTAAGTCCGTTAACAGTGCATTTTTTCTTTTATGTA [GTGCAC_site9867] | 9.41
36 | TAATGAAAAAATAAAAGAATAAATAAATAAATAAAT [TGCATGCA_negctrl_site130] | 9.4
37 | ATTAAAAAAATATAAACACACAAAAAAAAAATATAC [CACACA_site1100] | 10.1
38 | TACACGTTCTACATTTGTACTTAATTTATACATAAG [XGTACX_site1579] | 9.31
39 | TACGTCTTTTTTTTGGTGCATAATTTTTTTGTACAA | 9.4
40 | AATTTTGTTAAAAGGACACACAATTCAATATATTAA [CACACA_site647] | 9.38
41 | ATTACATGATATATCACACACACATATAGATATATA [CACACA_site7352] | 9.82
42 | GCTATTAATTTATAAGCACACAATATAAATATATAT [CACACA_site2251] | 9.15
43 | TATGTCGACATTTAAAGTACAAAAAAAAAAAAAAAA [XGTACX_site8985] | 8.85
44 | TATATTAAAATATTCACACACTAACGTAAATCATTG [CACACA_site5520] | 9.41
